According to PubChem BioAssay AID1508642 (National Center for Advancing Translational Sciences (NCATS), 2021):
Out of some 43,000 compounds screened, about 200 (0.47%) were called active. About 12% were inconclusive and are not listed. Calls come from the whole dose curve; as a rule, active = well fitted cell-killing curve with a large enough effect; inconclusive = small, poorly fitted or top-dose-only effect, or effect the other way; inactive = flat fitted curve, though single readings scatter. Some of the results follow.

Assay: Cell viability qHTS assay in S16 Pmp22-F2sN cells; note: nearly all actives have a fitted effect of over 65% in size
Conditions: S16 Pmp22-F2sN Schwann cells (luciferase reporters placed in the Pmp22 gene) viability, CellTiter-Glo, 24 h; series mostly up to 57.5 µM; activity change, negative = cytotoxicity: at the top concentration
How it was run: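 Rat S16 Schwann reporter line, 24 h treatment with library compounds delivered at 23 nL per well. Cell viability by CellTiter-Glo luminescence.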
% is set by controls: 0 for no effect and ±100 for the full control effect.

Row | Compound | activity change, negative = cytotoxicity
1 | CCCN(Cc1cccs1)C(=O)Nc1ccc(Br)c(C)c1 | inactive: -3.03%
2 | COc1ccc(CCNC(=O)CSc2nc3ccccc3nc2Cc2ccc(Cl)cc2)cc1OC | inactive: -4.21%
3 | Cc1nc2sccn2c(=O)c1S(=O)(=O)N1CCN(c2ccc(F)cc2)CC1 | inactive: 9.29%
4 | COc1ccc(N(C(=O)c2ccc(OC)c(OC)c2)S(=O)(=O)c2ccc(Cl)cc2)cc1 | inactive: -1.41%
5 | Cc1cc(NS(=O)(=O)c2ccc(NC(=O)c3ccccc3C)cc2)nc(C)n1 | inactive: 4.81%
6 | Cc1ccc(C)c(NC(=O)CC2NCCNC2=O)c1 (stereo unspecified) | inactive: 0.167%
7 | CCc1ccc(NCc2cc3cc4c(cc3n(CC(=O)Nc3cccc(OC)c3)c2=O)OCO4)cc1 | inactive: 8.39%
8 | COCCNC(=O)Cn1nc(C)c2c(C)n(-c3ccc(C)cc3)nc2c1=O | inactive: 4.63%
9 | CCc1ccc2ncc3c(-c4ccccc4)nn(-c4ccccc4)c3c2c1 | inactive: 16.7%
10 | CCCC(C(=O)NCc1cccc(Cl)c1)N1Cc2ccccc2C1=O (stereo unspecified) | inactive: -9.43%
11 | Cc1ccn2c(=O)cc(COc3ccc(NC(=O)COc4ccc(Cl)cc4)cc3)nc2c1 | inactive: 1.34%
12 | CCCN(CCC)C(=O)Cn1c(=O)n(-c2cccc(OC)c2)c(=O)c2c3c(sc21)CCCC3 | inactive: 13.6%
13 | Cc1csc2nc(COC(=O)c3cccc(NC(=O)COc4ccc(Cl)cc4)c3)cc(=O)n12 | inactive: 8.82%
14 | O=C(CCCCn1c(=O)c2ccccc2n(Cc2ccccc2Cl)c1=O)NCCc1ccccc1 | inactive: 21.7%
15 | N#Cc1ccccc1Cn1c(=O)n(CCCC(=O)NCc2ccc3c(c2)OCO3)c(=O)c2sccc21 | inactive: 1.26%
16 | Cc1ccc2nc(-c3ccc(Cl)c(NC(=O)COc4cccc(C)c4C)c3)oc2c1 | inactive: 7.1%
17 | Cc1cccc(NC(=O)c2ccc3snnc3c2)c1 | inactive: -4.01%
18 | Cc1cc2c(cc1NS(=O)(=O)c1ccc(F)cc1)n(C)c(=O)c(=O)n2C | inactive: 26.7%
19 | CCc1cccc(C)c1NS(=O)(=O)c1cc2[nH]c(=O)c(=O)[nH]c2cc1C | inactive: 18.6%
20 | CCN(CC)c1ccc(NC(=O)CCS(=O)(=O)c2cc3c(cc2Cl)NC(=O)CO3)c(C)c1 | inactive: 13.3%
21 | CCCc1cc(=O)[nH]c2nnc(SC(C)CC)n12 (stereo unspecified) | inactive: 0.704%

Row | Compound | activity change, negative = cytotoxicity
22 | CCOC(=O)c1sc(NC(=O)/C=C/c2ccc(C(C)C)cc2)c(C(=O)OCC)c1C | inactive: 27.1%
23 | COc1cccc(CNC(=O)CCc2c(C)nc3c(c(C)nn3-c3ccc(C)c(C)c3)c2C)c1 | inactive: 2.25%
24 | Cc1nc2c(-c3ccccc3)c(C)nn2c(C)c1CCC(=O)N1CCN(c2ccc(F)cc2)CC1 | inactive: 15.6%
25 | Cc1c(Cl)cccc1NC(=O)COCc1cc(-c2ccc3c(c2)OCO3)on1 | inactive: 0.65%
26 | CSc1ccc(CCNC(=O)c2ccc(-c3nc(COc4ccccc4)c(C)o3)cc2)cc1 | inactive: 4.6%
27 | Cc1cccc(N2CCN(CCCNc3ncnc4onc(-c5ccc(Cl)cc5)c34)CC2C)c1 (stereo unspecified) | inactive: 3.6%
28 | COc1ccc(Cl)cc1N(C)C(=O)c1ccc2c(=O)n3c(nc2c1)CCCCC3 | inactive: 18.7%
29 | COc1ccc(NC(=O)Cn2c(=O)n(CCC(=O)NCc3ccccc3OC)c(=O)c3ccccc32)cc1Cl | inactive: 8.32%
30 | Cc1ccc(Cn2ccn(Cc3ccccc3F)c(=O)c2=O)cc1 | inactive: 3.34%
31 | COc1ccc(CCNC(=O)CCn2c(=O)c3ccccc3n(Cc3cc(C)ccc3C)c2=O)cc1OC | inactive: -14.2%
32 | COc1ccc(N2CC(NC(=O)/C=C\c3ccccc3)CC2=O)cc1 (stereo unspecified) | inactive: -0.187%
33 | O=C(Cn1c(SCCOc2ccccc2)nc2ccccc21)N1CCOCC1 | inactive: -4.02%
34 | CC(=O)N1CCc2cc(CNC(=O)Cc3ccc(F)cc3)ccc21 | inactive: 5.46%
35 | CCOc1ccccc1CNC(=O)C1CCN(C(=O)N2CC(CC)Oc3ccc(C)cc32)CC1 (stereo unspecified) | inactive: -15.9%
36 | O=C(/C=C/c1ccccc1)N1CCN(Cc2cc(=O)n3nc(-c4ccccc4F)sc3n2)CC1 | inactive: 18%
37 | Cc1cc(OCCn2cc(C(=O)c3cccs3)c3ccccc32)ccc1Cl | inactive: 13.5%
38 | Cn1ncc2c(N3CCN(c4cccc(Cl)c4)CC3)ncnc21 | inactive: 0.417%
39 | CCOC(=O)N1CCc2c(sc(NCc3sccc3C)c2C(=O)Nc2ccc(OC)cc2OC)C1 | inactive: 11.2%
40 | Cc1cc(C)cc(NC(=O)C(Cc2ccccc2)NS(=O)(=O)c2ccc3c(c2)c(=O)n(C)c(=O)n3C)c1 (stereo unspecified) | inactive: 18.2%
41 | CCOc1ccc(Oc2nc(NCC(C)C)nc(N3CCOCC3)n2)nn1 | inactive: 0.41%
42 | CCCCOC(=O)c1ccc(NC(=O)c2cc3c(=O)n4cccc(C)c4nc3s2)cc1 | inactive: 15.1%

Row | Compound | activity change, negative = cytotoxicity
43 | Cc1c(C(=O)NCC(c2ccc(Cl)cc2)N2CCOCC2)oc2ccccc12 (stereo unspecified) | inactive: 2.82%
44 | CCCCN(C)CCNC(=O)c1c2c(nc3ccccc13)C(=O)N(C1CCCCC1)C2 | inactive: 8.32%
45 | CCCNC(=O)CCc1nnc2ccc(N3CCN(c4cccc(OC)c4)CC3)nn12 | inactive: 20.9%
46 | Cc1cc(Cl)ccc1OCc1nc(-c2ccc(-n3cccc3)cc2)no1 | inactive: -13.3%
47 | Cc1ccc(NC(=O)CCn2c(=O)c3cccn3c3ccccc32)cc1C | inactive: -18.6%
48 | Cc1ccc(-n2c(=O)c3cccnc3n2CC(=O)Nc2ccc(Br)cc2)cc1C | inactive: 11.6%
49 | CCC(=O)N1CCc2cc(Br)cc(S(=O)(=O)CCC(=O)NCCc3cccc(C)c3)c21 | inactive: 6.4%
50 | Cc1ccc2c(=O)cc(C(=O)Nc3nc4ccc(Cl)cc4s3)oc2c1C | inactive: 5.13%
51 | COc1cccc(-c2ncnn2-c2sc3c(c2C#N)CCCCC3)c1OC | inactive: 8.32%
52 | CCN(C(=O)CSc1nc2ncccc2[nH]1)c1ccc(C(C)C)cc1 | inactive: -2.58%
53 | O=C(COc1ccc(Cl)cc1)Nc1nnc(S(=O)(=O)N2CCc3ccccc32)s1 | inactive: -0.0844%
54 | Cc1ccc(CN(C(=O)COc2ccc([N+](=O)[O-])cc2)c2ccccn2)cc1 | inactive: -3.44%
55 | CCN(CC)CCCNC(=O)c1cnc(SC)nc1-c1ccccc1 | inactive: 28.4%
56 | CCN(CC)CCCNC(=O)c1cn(C)c2ccc(S(=O)(=O)N(C)C3CCCCC3)cc2c1=O | inactive: -2.13%
57 | CCOC(=O)c1c(C)[nH]c(C)c1S(=O)(=O)N(C)CC(=O)N1CCN(c2ccccc2)CC1 | inactive: -14.8%
58 | COc1ccc(CNc2nc3c(-c4cccc(C)c4)nnn3c3ccccc23)cc1 | inactive: 14.2%
59 | Cc1nn(CC(=O)N2CCC(C)CC2)c(=O)c2cc3sccc3n12 | inactive: 12.2%
60 | Cc1ccccc1CN1C(=O)c2ccccc2S(=O)c2ccc(C(=O)NC3CCC(C)CC3)cc21 (stereo unspecified) | inactive: -21.4%
61 | CC(=O)N1c2c(cc(Br)cc2S(=O)(=O)N2CCN(c3cc(C)ccc3C)CC2)CC1C (stereo unspecified) | inactive: 7.92%
